Values joined by “and” are separate entries in the source; they are usually repeats but may differ in a detail not shown here. Equal entries are not always repeated. Hit rate of the full screen: of about 230,000 compounds, about 3,600 (1.6%) were called active. The shares of active, inactive and inconclusive entries below differ from those in the screen. Calls follow the shape of the dose curve; as a rule, active = well fitted inhibition curve with a large enough effect (not every such curve was filed as active); inconclusive = small, poorly fitted or top-dose-only effect, or another doubt; inactive = no such curve, though single readings can be large or run the other way. Potencies of inconclusive entries are doubtful fits and often do not repeat.
The compounds below were run against Lysine-specific demethylase 4E (Homo sapiens) (UniProt B2RXH2) (assay: qHTS Assay for Inhibitors of Human Jumonji Domain Containing 2E (JMJD2E)). Details: JMJD2E catalytic domain, FDH-coupled NADH fluorescence (FDH is formaldehyde dehydrogenase); series mostly up to 57.1 µM; activity change, negative = inhibition: at the top concentration.
Chain of UniProt B2RXH2 (B2RXH2 whole entry, looked up, the tested form may be a part): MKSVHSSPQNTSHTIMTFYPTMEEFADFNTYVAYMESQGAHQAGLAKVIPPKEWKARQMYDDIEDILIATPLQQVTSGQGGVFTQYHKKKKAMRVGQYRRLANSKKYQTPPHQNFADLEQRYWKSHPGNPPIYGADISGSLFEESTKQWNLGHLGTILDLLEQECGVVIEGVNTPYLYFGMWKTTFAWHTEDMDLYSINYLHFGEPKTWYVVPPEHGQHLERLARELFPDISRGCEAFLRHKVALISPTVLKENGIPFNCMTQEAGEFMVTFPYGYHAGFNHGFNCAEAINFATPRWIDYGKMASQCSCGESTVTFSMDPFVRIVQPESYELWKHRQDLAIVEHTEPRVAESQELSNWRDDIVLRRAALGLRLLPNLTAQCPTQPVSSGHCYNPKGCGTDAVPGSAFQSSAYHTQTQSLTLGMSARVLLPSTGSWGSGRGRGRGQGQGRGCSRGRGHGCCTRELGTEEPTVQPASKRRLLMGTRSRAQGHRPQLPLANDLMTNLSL
In the case of `CC(=O)Nc1nc(CC(C)C)cc(-c2ccco2)c1C#N`, the Potency is reported as inconclusive: 31.6 µM [inhibitor, partial curve].
`NC(=O)C1=C[C@@H](c2ccc(C(F)(F)F)cc2)C[C@@H](OCc2ccc(CO)cc2)O1` was tested, and the Potency was inconclusive: 20 µM [inhibitor, partial curve].
`CN(C)S(=O)(=O)Oc1cccc(C(=O)Nc2ccc([N+](=O)[O-])cc2)c1` was tested, and the “activity change, negative = inhibition” value was inactive: 6.56%.
For `Cc1nnc(SCc2cc(=O)[nH]c(/N=C(\N)Nc3ccccc3)n2)s1`, the “activity change, negative = inhibition” value was inactive: 1.98%.
With `O=C(c1cccc2c1-c1ccccc1/C2=N/O)N1CCCCC1` the “activity change, negative = inhibition” value was inactive: 7.74%.
With `S=C(NCc1ccncc1)NC1CCCC1` the “activity change, negative = inhibition” value was inactive: 0.111%.
In the case of `Cc1ccc(N(Cc2ccc(C(=O)Nc3ccccc3C(=O)NCc3ccco3)cc2)S(C)(=O)=O)cc1C`, the Potency is reported as inconclusive: 35.5 µM [inhibitor, single point].
For `COc1cccc(NC(=O)c2oc3ccccc3c2NC(=O)C(C)(C)C)c1`, the Potency was inconclusive: 35.5 µM [inhibitor, single point].
In the case of `CSc1nnc(-c2ccc(NC(=O)CCc3ccccc3)cc2)n1C`, the Potency is reported as inconclusive: 35.5 µM [inhibitor, single point].
For `O=C(c1ccco1)c1cn(CC(=O)N2CCCc3ccccc32)c2ccccc12`, the Potency was inconclusive: 3.16 µM [inhibitor, full curve].
In the case of `CC(=O)NC1C(Oc2ccc3c(C)cc(=O)oc3c2)OC(COC(C)=O)C(OC(C)=O)C1OC(C)=O` (centres undefined), the Potency is reported as inconclusive: 31.6 µM [inhibitor, single point].
For `CC(=O)c1cc2c(cc1NC(=O)Nc1cccc(Cl)c1)OCCO2`, the Potency was inconclusive: 28.2 µM [inhibitor, partial curve].
With `CCN(CC)CCOc1ccc(/C(=C(\Cl)c2ccccc2)c2ccccc2)cc1` the “activity change, negative = inhibition” value was inactive: -17.8% [at 25.5 µM].
`Cc1ccc(-c2nnn(CC(=O)N(CCO)C(C(=O)NC(C)(C)C)c3ccncc3)n2)cc1` (centres undefined) was tested, and the Potency was inconclusive: 31.6 µM [inhibitor, single point].
In the case of `O[C@@H](c1ccccc1)C1CCN(CCc2ccccc2)CC1`, the Potency is reported as inconclusive: 39.8 µM [inhibitor, single point].
With `O=C(COC(=O)c1ccc(NS(=O)(=O)c2cccs2)cc1)NCc1ccco1` the “activity change, negative = inhibition” value was inactive: -11.8%.
With `COCCCNC(=O)c1ccccc1NS(C)(=O)=O` the Potency was inconclusive: 28.2 µM [inhibitor, partial curve].
With `COc1cccc2c(=O)cc(C)n(CC(=O)Nc3ccccc3C)c12` the Potency was inconclusive: 28.2 µM [inhibitor, partial curve].
`Cc1ccc(SCc2nc3ccccc3n2CC(=O)Nc2ccc(Cl)cc2)cc1` was tested, and the “activity change, negative = inhibition” value was inactive: 10.6%.
In the case of `C=CCn1c(SCC(=O)NC(N)=O)nnc1-c1cc2c(s1)CCC(CC)C2` (centres undefined), the Potency is reported as inconclusive: 39.8 µM [inhibitor, single point].
With `CCOC(=O)c1c(NC(=O)CSc2nc3ccccc3o2)sc(C(C)=O)c1C` the “activity change, negative = inhibition” value was inactive: -11.2%.
In the case of `O=C(CN1CCCc2ccccc21)N/N=C/c1c(O)ccc2ccccc12`, the Potency is reported as inconclusive: 35.5 µM [inhibitor, single point].
`C=C(C)Cc1c(C)nc(-c2ccccc2)[nH]c1=O` was tested, and the Potency was inconclusive: 39.8 µM [inhibitor, single point].
For `CCN(C(=O)COC(=O)c1ccccc1SCC(=O)NC1CCCCCCC1)C1CCS(=O)(=O)C1` (centres undefined), the “activity change, negative = inhibition” value was inactive: 1.24%.
`O=C(O)c1ccccc1-c1ccccc1C(=O)Nc1ccc2c(c1)[nH]c(=O)c1ccccc12` was tested, and the Potency was inconclusive: 25.1 µM [inhibitor, single point].
With `COc1ccc(NC(=O)CSc2ccccc2)cc1S(=O)(=O)N1CCCCC1` the “activity change, negative = inhibition” value was inactive: 3.48%.
With `O=C1Nc2ccccc2N2CCCC12` (centres undefined) the Potency was inconclusive: 35.5 µM [inhibitor, single point].
For `CCN1CCCC1CNc1ncnc2c1[nH]c1ccc(F)cc12` (centres undefined), the Potency was inconclusive: 20 µM [inhibitor, partial curve].
`CCc1cc(=O)oc2c(CN3CCN(C)CC3)c(O)c(Cl)cc12` was tested, and the Potency was inconclusive: 4.47 µM [inhibitor, full curve].
In the case of `Nc1c(C(=O)NC2CC2)sc2nc3c(c(-c4ccco4)c12)CC/C3=C/c1ccco1`, the Potency is reported as inconclusive: 8.91 µM [inhibitor, single point].
`Cc1ccc(CNC(=O)C23CN(Cc4ccccc4)CC2C(c2cccc([N+](=O)[O-])c2)=NO3)cc1` (centres undefined) was tested, and the “activity change, negative = inhibition” value was inactive: -8.98%.
`Cn1cc([C@@H]2C[C@H]3CN(Cc4cccc(Cl)c4)C(=O)[C@]34CCCN24)c2ccccc21` was tested, and the Potency was inconclusive: 15.8 µM [inhibitor, partial curve].
With `N#Cc1c(N)nc(SCC(=O)C23CC4CC(CC(C4)C2)C3)c(C#N)c1-c1ccc(Cl)cc1` the Potency was active: 3.55 µM.
For `CCC(NC(=O)CCl)c1ccc(C)cc1` (centres undefined), the “activity change, negative = inhibition” value was inactive: -9.31%.
For `COc1c(Cl)cc(Cl)cc1/C=N/n1cnnc1`, the Potency was inconclusive: 28.2 µM [inhibitor, partial curve].
In the case of `Fc1ccc2c(c1)/C(=N/Nc1ccccn1)CCS2`, the “activity change, negative = inhibition” value is reported as inactive: -8.23%.
For `COc1ccc(S(=O)(=O)N2c3ccc(Cl)cc3[C@](O)(c3ccccc3Cl)[C@@H]2C(=O)N2CCC[C@H]2C(N)=O)cc1OC`, the “activity change, negative = inhibition” value was inactive: -1.91%.
With `CSc1cccc(NC(=O)Cn2cccc2)c1` the “activity change, negative = inhibition” value was inactive: -3.2%.
`CCc1ccc(-c2cc(C(F)(F)F)n3nc(C(=O)Nc4c(C)nn(Cc5ccccc5C)c4C)cc3n2)s1` was tested, and the Potency was inconclusive: 10 µM [inhibitor, partial curve].
With `Cn1c(=O)c(C(=O)COC(=O)c2cc(-c3ccco3)nc3ccccc23)c(N)n(CC2CC2)c1=O` the Potency was inconclusive: 28.2 µM [inhibitor, partial curve] and inconclusive: 17.8 µM [inhibitor, partial curve].
`COC(=O)C(C)Oc1ccc2c3c(c(=O)oc2c1)CCCCC3` (centres undefined) was tested, and the Potency was inconclusive: 35.5 µM [inhibitor, partial curve].
`COc1ccc2c(c1)CCc1c(C(=O)NCc3cccnc3)noc1-2` was tested, and the Potency was inconclusive: 28.2 µM [inhibitor, single point].
In the case of `CSc1nnc(-c2cccc(NC(=S)NN)c2)o1`, the “activity change, negative = inhibition” value is reported as inactive: 0.643%.
`Cn1cccc1C(=O)NC(=O)COC(=O)c1cc(S(=O)(=O)N2CCCCC2)ccc1Cl` was tested, and the Potency was inconclusive: 39.8 µM [inhibitor, single point].

Reference: PubChem BioAssay AID2147 (National Center for Advancing Translational Sciences (NCATS), 2009)
Also: nearly all actives have a fitted effect of over 50% in size.
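For activity change, negative = inhibition in this document: 0% = wells with enzyme and -100% = buffer wells without enzyme.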
Potency is read from the fitted curve at half-maximal effect; tags tell the direction and shape of the fitted curve.
